# Data: the supplement of paper PMC8728848
# The other results are listed elsewhere or left out.
# B1: rAAL (Agrocybe aegerita), Q6WY08 (protein)
# chain: MQGVNIYNISAGTSVDLAAPVTTGDIVTFFSSALNLNAGAGNPNNTTLNLFAENGAYLLHIAFRLQENVIIFNSRQPDGPWLVEQAVSDVANQFAGIDGKAMVTVFDHGDKYQVVINEKTVIQYTKQISGLTLSLSYNATEETSIFSTVVEAVTYTGLALEHHHHHH
# What was measured:
# Test in all cases: glycan array binding signal (z-score within array); higher = stronger binding
# Conditions in all cases: glycan notation: IUPAC condensed, linker removed; mutation: R85A
# [1] = target: Gal(b1-4)GlcNAc(a1-6)Gal(b1-4)GlcNAc
# How it was run: (§1)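 Arrays were curated from the Consortium for Functional Glycomics database, 3228 in total, and kept only where the protein sequence was available. Binding is expressed as a within-array Z-score. This score was averaged across arrays of the same protein sequence at different concentrations or buffers and across linkers, and negative values can be read as non-binding.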
# [2] = target: Gal(b1-4)GlcNAc(b1-2)Man(a1-3)Man(b1-4)GlcNAc(b1-4)GlcNAc
# How it was run: as §1
# [3] = target: Gal(b1-4)GlcNAc(b1-2)Man(a1-3)[Gal(b1-4)GlcNAc(b1-2)Man(a1-6)]Man(b1-4)GlcNAc(b1-4)GlcNAc
# How it was run: as §1
# [4] = target: Gal(b1-4)GlcNAc(b1-2)Man(a1-3)[Gal(b1-4)GlcNAc(b1-2)Man(a1-6)]Man(b1-4)GlcNAc(b1-4)[Fuc(a1-6)]GlcNAc
# How it was run: as §1
# [5] = target: Gal(b1-4)GlcNAc(b1-2)Man(a1-3)[GlcNAc(b1-2)Man(a1-6)]Man(b1-4)GlcNAc(b1-4)GlcNAc
# How it was run: as §1
# [6] = target: Gal(b1-4)GlcNAc(b1-2)Man(a1-3)[Man(a1-6)]Man(b1-4)GlcNAc(b1-4)GlcNAc
# How it was run: as §1
# [7] = target: Gal(b1-4)GlcNAc(b1-2)Man(a1-6)Man(b1-4)GlcNAc(b1-4)GlcNAc
# How it was run: as §1
# [8] = target: Gal(b1-4)GlcNAc(b1-2)Man(a1-6)[GlcNAc(b1-2)Man(a1-3)]Man(b1-4)GlcNAc(b1-4)GlcNAc
# How it was run: as §1
# [9] = target: Gal(b1-4)GlcNAc(b1-2)Man(a1-6)[Man(a1-3)]Man(b1-4)GlcNAc(b1-4)GlcNAc
# How it was run: as §1
# [10] = target: Gal(b1-4)GlcNAc(b1-2)[Gal(b1-4)GlcNAc(b1-4)]Man(a1-3)[Gal(b1-4)GlcNAc(b1-2)Man(a1-6)]Man(b1-4)GlcNAc(b1-4)GlcNAc
# How it was run: as §1
# [11] = target: Gal(b1-4)GlcNAc(b1-2)[Gal(b1-4)GlcNAc(b1-4)]Man(a1-3)[Gal(b1-4)GlcNAc(b1-2)[Gal(b1-4)GlcNAc(b1-6)]Man(a1-6)]Man(b1-4)GlcNAc(b1-4)GlcNAc
# How it was run: as §1
# [12] = target: Gal(b1-4)GlcNAc(b1-3)Gal(b1-3)GlcNAc
# How it was run: as §1
# [13] = target: Gal(b1-4)GlcNAc(b1-3)Gal(b1-4)Glc
# How it was run: as §1
# [14] = target: Gal(b1-4)GlcNAc(b1-3)Gal(b1-4)GlcNAc
# How it was run: as §1
# [15] = target: Gal(b1-4)GlcNAc(b1-3)Gal(b1-4)GlcNAc(b1-3)Gal(b1-4)GlcNAc
# How it was run: as §1
# [16] = target: Gal(b1-4)GlcNAc(b1-3)Gal(b1-4)[Fuc(a1-3)]GlcNAc(b1-3)Gal(b1-4)[Fuc(a1-3)]GlcNAc
# How it was run: as §1
# [17] = target: Gal(b1-4)GlcNAc(b1-3)GalNAc
# How it was run: as §1
# [18] = target: Gal(b1-4)GlcNAc(b1-3)[Gal(b1-4)GlcNAc(b1-6)]Gal(b1-4)GlcNAc
# How it was run: as §1
# [19] = target: Gal(b1-4)GlcNAc(b1-3)[Gal(b1-4)GlcNAc(b1-6)]GalNAc
# How it was run: as §1
# [20] = target: Gal(b1-4)GlcNAc(b1-3)[GlcNAc(b1-6)]Gal(b1-4)GlcNAc
# How it was run: as §1
# [21] = target: Gal(b1-4)GlcNAc(b1-6)Gal(b1-4)GlcNAc
# How it was run: as §1
# [22] = target: Gal(b1-4)GlcNAc(b1-6)GalNAc
# How it was run: as §1
# [23] = target: Gal(b1-4)GlcNAc(b1-6)[Gal(b1-3)]GalNAc
# How it was run: as §1
# [24] = target: Gal3S(b1-3)GalNAc
# How it was run: as §1
# [25] = target: Gal3S(b1-3)GlcNAc
# How it was run: as §1
# [26] = target: Gal3S(b1-3)[Fuc(a1-4)]GlcNAc
# How it was run: as §1
# [27] = target: Gal3S(b1-4)Glc
# How it was run: as §1
# [28] = target: Gal3S(b1-4)Glc6S
# How it was run: as §1
# [29] = target: Gal3S(b1-4)GlcNAc
# How it was run: as §1
# [30] = target: Gal3S(b1-4)GlcNAc6S
# How it was run: as §1
# [31] = target: Gal3S(b1-4)[Fuc(a1-3)]Glc
# How it was run: as §1
# [32] = target: Gal3S(b1-4)[Fuc(a1-3)]Glc6S
# How it was run: as §1
# [33] = target: Gal3S4S(b1-4)GlcNAc
# How it was run: as §1
# [34] = target: Gal3S6S(b1-4)GlcNAc
# How it was run: as §1
# [35] = target: Gal3S6S(b1-4)GlcNAc6S
# How it was run: as §1
# [36] = target: Gal4S(b1-4)GlcNAc
# How it was run: as §1
# [37] = target: Gal4S6S(b1-4)GlcNAc
# How it was run: as §1
# [38] = target: Gal6S(b1-4)Glc
# How it was run: as §1
# [39] = target: Gal6S(b1-4)Glc6S
# How it was run: as §1
# [40] = target: Gal6S(b1-4)GlcNAc
# How it was run: as §1
# [41] = target: Gal6S(b1-4)GlcNAc6S
# How it was run: as §1
# [42] = target: GalNAc(a1-3)Gal
# How it was run: as §1
# [43] = target: GalNAc(a1-3)GalNAc
# How it was run: as §1
# [44] = target: GalNAc(a1-3)GalNAc(a1-3)Gal(a1-4)Gal(b1-4)GlcNAc
# How it was run: as §1
# [45] = target: GalNAc(b1-3)Gal
# How it was run: as §1
binder,measurement,setting,value
B1,glycan array binding signal (z-score),[1],-0.134
same,glycan array binding signal (z-score),[2],-0.13
same,glycan array binding signal (z-score),[3],-0.141
same,glycan array binding signal (z-score),[4],-0.132
same,glycan array binding signal (z-score),[5],-0.135
same,glycan array binding signal (z-score),[6],-0.138
same,glycan array binding signal (z-score),[7],-0.139
same,glycan array binding signal (z-score),[8],-0.131
same,glycan array binding signal (z-score),[9],-0.138
same,glycan array binding signal (z-score),[10],-0.132
same,glycan array binding signal (z-score),[11],-0.134
same,glycan array binding signal (z-score),[12],-0.122
same,glycan array binding signal (z-score),[13],-0.119
same,glycan array binding signal (z-score),[14],-0.126
same,glycan array binding signal (z-score),[15],-0.132
same,glycan array binding signal (z-score),[16],-0.136
same,glycan array binding signal (z-score),[17],-0.132
same,glycan array binding signal (z-score),[18],-0.139
same,glycan array binding signal (z-score),[19],-0.129
same,glycan array binding signal (z-score),[20],-0.118
same,glycan array binding signal (z-score),[21],-0.133
same,glycan array binding signal (z-score),[22],-0.117
same,glycan array binding signal (z-score),[23],-0.11
same,glycan array binding signal (z-score),[24],14.6
same,glycan array binding signal (z-score),[25],3.42
same,glycan array binding signal (z-score),[26],-0.135
same,glycan array binding signal (z-score),[27],3.77
same,glycan array binding signal (z-score),[28],4.38
same,glycan array binding signal (z-score),[29],-0.092
same,glycan array binding signal (z-score),[30],0.209
same,glycan array binding signal (z-score),[31],-0.13
same,glycan array binding signal (z-score),[32],-0.093
same,glycan array binding signal (z-score),[33],-0.131
same,glycan array binding signal (z-score),[34],-0.136
same,glycan array binding signal (z-score),[35],-0.116
same,glycan array binding signal (z-score),[36],-0.121
same,glycan array binding signal (z-score),[37],-0.136
same,glycan array binding signal (z-score),[38],-0.134
same,glycan array binding signal (z-score),[39],-0.121
same,glycan array binding signal (z-score),[40],-0.127
same,glycan array binding signal (z-score),[41],-0.131
same,glycan array binding signal (z-score),[42],-0.138
same,glycan array binding signal (z-score),[43],-0.118
same,glycan array binding signal (z-score),[44],-0.134
same,glycan array binding signal (z-score),[45],-0.125
